# The other results are listed elsewhere or left out. These are further read-outs of the screen, such as a control signal, another cell line or another target. No call is given for them.
# Target: GTPase KRas (Homo sapiens) (UniProt P01116)
# Assay: Fragment capture on engineered cysteines, share of protein labelled (AID 2202238)
# Parameters: protein at 5 µM with 500 µM competing thiol for 1.5 h
# Conditions: KRAS G12D cysteine mutants, disulfide tethering, MALDI-TOF labeling, stronger effect = higher value, fragment at 500 µM
# [1] = measured here: G75C mutant labeling
# [2] = measured here: H94C mutant labeling
# [3] = measured here: I36C mutant labeling
# [4] = measured here: L120C mutant labeling
# [5] = measured here: M67C mutant labeling
# [6] = measured here: M72C mutant labeling
# [7] = measured here: N86C mutant labeling
# [8] = measured here: P121C mutant labeling
# [9] = measured here: S122C mutant labeling
# [10] = measured here: S136C mutant labeling
# [11] = measured here: G60C mutant labeling
# [12] = measured here: N26C mutant labeling
# Sequence of UniProt P01116 (P01116 whole entry, looked up, the tested form may be a part): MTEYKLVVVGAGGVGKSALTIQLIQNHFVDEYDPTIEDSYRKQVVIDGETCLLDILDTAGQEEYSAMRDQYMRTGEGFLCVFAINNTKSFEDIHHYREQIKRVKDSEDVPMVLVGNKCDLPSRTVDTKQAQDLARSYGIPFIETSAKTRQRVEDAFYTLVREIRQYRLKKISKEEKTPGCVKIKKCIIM
smiles,measurement,setting,value
CCOc1ccc(NC(=O)CCS)cc1CN(CC)CC,percent labeling,[1],12%
same,percent labeling,[2],39.5%
same,percent labeling,[3],51.2%
same,percent labeling,[4],40.1%
same,percent labeling,[5],47.5%
same,percent labeling,[6],37.7%
same,percent labeling,[7],31.8%
same,percent labeling,[8],31.4%
same,percent labeling,[9],27.4%
same,percent labeling,[10],60%
COc1ccc(C(=O)NCCS)nc1,percent labeling,[11],52%
same,percent labeling,[1],44.3%
same,percent labeling,[2],47%
same,percent labeling,[3],34%
same,percent labeling,[4],51.1%
same,percent labeling,[5],39.7%
same,percent labeling,[6],69%
same,percent labeling,[12],50.7%
same,percent labeling,[7],41.7%
same,percent labeling,[8],47.1%
same,percent labeling,[9],41.6%
same,percent labeling,[10],51.6%
COc1cnc(C(F)(F)F)cc1C(=O)NCCS,percent labeling,[11],43.5%
same,percent labeling,[1],24.4%
same,percent labeling,[2],46.1%
same,percent labeling,[3],25.9%
same,percent labeling,[4],27.6%
same,percent labeling,[5],27.1%
same,percent labeling,[6],43.4%
same,percent labeling,[12],40.4%
same,percent labeling,[7],23.5%
same,percent labeling,[8],23.1%
same,percent labeling,[9],27.1%
same,percent labeling,[10],43.5%
Cc1nn(CC(C)C)c(C)c1CCC(=O)NCCS,percent labeling,[11],36.7%
same,percent labeling,[1],14.6%
same,percent labeling,[2],33.8%
same,percent labeling,[3],23.1%
same,percent labeling,[4],27.6%
same,percent labeling,[5],31.5%
same,percent labeling,[6],15.4%
same,percent labeling,[12],35.9%
same,percent labeling,[7],24.1%
same,percent labeling,[8],32%
same,percent labeling,[9],32.5%
same,percent labeling,[10],40.1%
O=C(CCS)Nc1ccc(OCC2CC2)cc1F,percent labeling,[1],14.4%
same,percent labeling,[2],21%
same,percent labeling,[3],26.4%
same,percent labeling,[4],23.7%
same,percent labeling,[5],20.4%
same,percent labeling,[6],35%
same,percent labeling,[7],14.2%
same,percent labeling,[8],19.9%
same,percent labeling,[9],20.1%
same,percent labeling,[10],37.8%
O=C(NCCS)C1CCN(C(=O)OCc2ccccc2)CC1,percent labeling,[11],33.7%
same,percent labeling,[1],12.5%
same,percent labeling,[2],29%
same,percent labeling,[3],24.1%
same,percent labeling,[4],18.9%
same,percent labeling,[5],48.2%
same,percent labeling,[6],24.4%
same,percent labeling,[12],38.2%
same,percent labeling,[7],19%
same,percent labeling,[8],20.3%
same,percent labeling,[9],19.4%
same,percent labeling,[10],34.1%
O=C(NCCS)[C@@H]1C[C@H]1c1ccccn1,percent labeling,[11],46.5%
same,percent labeling,[1],22.4%
same,percent labeling,[2],34.9%
same,percent labeling,[3],31.3%
same,percent labeling,[4],33.2%
same,percent labeling,[5],55.3%
same,percent labeling,[6],29.1%
same,percent labeling,[12],46%
same,percent labeling,[7],29.2%
same,percent labeling,[8],42.8%
same,percent labeling,[9],32.9%
same,percent labeling,[10],70.2%
O=C(NCCS)c1ccc(COc2ccccc2)cc1,percent labeling,[11],11.7%
same,percent labeling,[1],6.2%
same,percent labeling,[2],10.8%
same,percent labeling,[3],10.7%
same,percent labeling,[4],15.9%
same,percent labeling,[5],14.9%
same,percent labeling,[6],28.4%
same,percent labeling,[12],19.9%
same,percent labeling,[7],11.9%
same,percent labeling,[8],8.8%
same,percent labeling,[9],10.6%
same,percent labeling,[10],15.1%
O=C(CN1C(=O)COc2ccc(Cl)cc21)NCCS,percent labeling,[11],45.1%
same,percent labeling,[1],25.7%
same,percent labeling,[2],31.4%
same,percent labeling,[3],23.9%
same,percent labeling,[4],34.4%
same,percent labeling,[5],28.2%
same,percent labeling,[6],49.5%
same,percent labeling,[12],33.7%
same,percent labeling,[7],21.3%
same,percent labeling,[8],23.8%
same,percent labeling,[9],20.4%
same,percent labeling,[10],30.9%
O=C(CCS)NCc1ccc(C(F)F)nc1,percent labeling,[1],10.7%
same,percent labeling,[2],25.5%
same,percent labeling,[3],40.2%
same,percent labeling,[4],25%
same,percent labeling,[5],26.5%
same,percent labeling,[6],19.5%
same,percent labeling,[7],20.7%
same,percent labeling,[8],28.7%
same,percent labeling,[9],30.8%
same,percent labeling,[10],44.8%
COc1ccc(OC)c(-c2cc(C(=O)NCCS)[nH]n2)c1,percent labeling,[11],19.7%
same,percent labeling,[1],9.2%
same,percent labeling,[2],12.2%
same,percent labeling,[3],9.2%
same,percent labeling,[4],11.5%
same,percent labeling,[5],10.8%
same,percent labeling,[6],32.2%
same,percent labeling,[12],28.3%
same,percent labeling,[7],11.7%
same,percent labeling,[8],8.8%
same,percent labeling,[9],10.2%
same,percent labeling,[10],13.9%
Cc1csc(=O)n1CC(=O)NCCS,percent labeling,[11],30.2%
same,percent labeling,[1],17.7%
same,percent labeling,[2],29.9%
same,percent labeling,[3],29.8%
same,percent labeling,[4],42.6%
same,percent labeling,[5],26.9%
same,percent labeling,[6],21.3%
same,percent labeling,[12],35.5%
same,percent labeling,[7],32.5%
same,percent labeling,[8],31.6%
same,percent labeling,[9],35.1%
same,percent labeling,[10],38.1%
O=C(CN1C(=O)C2CC=CCC2C1=O)NCCS (stereo not drawn),percent labeling,[11],23.3%
same,percent labeling,[1],6.9%
same,percent labeling,[2],27.8%
same,percent labeling,[3],20.7%
same,percent labeling,[4],42.3%
same,percent labeling,[5],21.5%
same,percent labeling,[6],12.9%
same,percent labeling,[12],28.6%
same,percent labeling,[7],22.5%
same,percent labeling,[8],29%
same,percent labeling,[9],29.2%
same,percent labeling,[10],32.9%
Cc1nnc(N2CCN(C(=O)CCS)CC2)s1,percent labeling,[1],11.3%
same,percent labeling,[2],26%
same,percent labeling,[3],40.1%
same,percent labeling,[4],27.2%
same,percent labeling,[5],36.5%
same,percent labeling,[6],21.4%
same,percent labeling,[7],37.2%
same,percent labeling,[8],30.8%
same,percent labeling,[9],29.8%
same,percent labeling,[10],61.3%
O=C(CCS)NCC1(c2ccncc2F)CC1,percent labeling,[1],13.5%
same,percent labeling,[2],28.6%
same,percent labeling,[3],47.4%
same,percent labeling,[4],36.8%
same,percent labeling,[5],42%
same,percent labeling,[6],32%
same,percent labeling,[7],28.6%
same,percent labeling,[8],37.6%
same,percent labeling,[9],40%
same,percent labeling,[10],53.3%
O=C(NCCS)c1cnc2nc[nH]c2c1,percent labeling,[11],38.1%
same,percent labeling,[1],30.3%
same,percent labeling,[2],37.3%
same,percent labeling,[3],32.8%
same,percent labeling,[4],36.5%
same,percent labeling,[5],38.9%
same,percent labeling,[6],42.3%
same,percent labeling,[12],50.1%
same,percent labeling,[7],33.4%
same,percent labeling,[8],30.4%
same,percent labeling,[9],39.8%
same,percent labeling,[10],50.2%
CN(CC(=O)NCCS)C(=O)c1cnn(C)c1-n1cccc1,percent labeling,[11],30.2%
same,percent labeling,[1],12.4%
same,percent labeling,[2],31.7%
same,percent labeling,[3],25.6%
same,percent labeling,[4],33.2%
same,percent labeling,[5],29.2%
same,percent labeling,[6],13.9%
same,percent labeling,[12],35%
same,percent labeling,[7],22.8%
same,percent labeling,[8],30.5%
same,percent labeling,[9],27.5%
same,percent labeling,[10],44.2%
Cc1nc2c(s1)CCCC2CNC(=O)CCS (stereo not drawn),percent labeling,[1],16.6%
same,percent labeling,[2],44.1%
same,percent labeling,[3],45.1%
same,percent labeling,[4],34.6%
same,percent labeling,[5],42%
same,percent labeling,[6],32.1%
same,percent labeling,[7],22.9%
same,percent labeling,[8],36.4%
same,percent labeling,[9],31.2%
same,percent labeling,[10],67.5%
N#Cc1ccc(N2CCC(C(=O)NCCS)CC2)nc1,percent labeling,[11],44.4%
same,percent labeling,[1],12%
same,percent labeling,[2],34.2%
same,percent labeling,[3],37%
same,percent labeling,[4],35.8%
same,percent labeling,[5],29.3%
same,percent labeling,[6],32.2%
same,percent labeling,[12],43.7%
same,percent labeling,[7],24.2%
same,percent labeling,[8],28.1%
same,percent labeling,[9],23.8%
same,percent labeling,[10],47.3%
O=C(CCS)N1CCCC1c1c(F)cccc1F (stereo not drawn),percent labeling,[1],24.1%
same,percent labeling,[2],55.4%
same,percent labeling,[3],34.2%
same,percent labeling,[4],39%
same,percent labeling,[5],43%
same,percent labeling,[6],42.4%
same,percent labeling,[7],34.4%
same,percent labeling,[8],36.8%
same,percent labeling,[9],34.2%
same,percent labeling,[10],74.1%
O=C(CCS)NC1CCCc2c1cnn2-c1ccccc1F (stereo not drawn),percent labeling,[1],16.3%
same,percent labeling,[2],37.5%
same,percent labeling,[3],37.2%
same,percent labeling,[4],33.7%
same,percent labeling,[5],43.7%
same,percent labeling,[6],30.4%
same,percent labeling,[7],22.2%
same,percent labeling,[8],32.1%
same,percent labeling,[9],28.2%
same,percent labeling,[10],53.3%
O=C(NCCS)c1cccnc1Cl,percent labeling,[11],41.4%
same,percent labeling,[1],29.7%
same,percent labeling,[2],42.1%
same,percent labeling,[3],33.9%
same,percent labeling,[4],44.1%
same,percent labeling,[5],39.9%
same,percent labeling,[6],36.3%
same,percent labeling,[12],43.9%
same,percent labeling,[7],40.2%
same,percent labeling,[8],38.3%
same,percent labeling,[9],41.2%
same,percent labeling,[10],49.4%
O=C(CCS)NC1(c2ccc(F)cn2)CC1,percent labeling,[1],14.2%
same,percent labeling,[2],34.6%
same,percent labeling,[3],35.7%
same,percent labeling,[4],30.6%
same,percent labeling,[5],33.5%
same,percent labeling,[6],29.6%
same,percent labeling,[7],33.4%
same,percent labeling,[8],33.4%
same,percent labeling,[9],38.4%
same,percent labeling,[10],48.3%
